# Data as given in a collection of fitness landscapes (doi:10.1016/j.celrep.2020.107928).
# Over roughly 81,000 sequences, “one-hybrid fitness for binding NBS DNA” has its median near -0.1; the highest 2% begin near 0.36. Some of the results follow.
# B1: Caulobacter ParB omega fusion; a variant is named by its letters at X, in order, B8GW30 (parent)
# chain: MESVVVGEPGMSEGRRGLGRGLSALLGEVDAAPAQAPGEQLGGSREAPIEILQRNPDQPRRTFREEDLEDLSNSIREKGVLQPILVRPSPDTAGEYQIVAGERAWRAAQRAGLKTVPIMVRELDDLAVLEIGIIENVQRADLNVLEEALSYKVLMEKFERTQENIAQTIGKSXSHVANXMRLLXLPDEVQSYLVSGELTAXHARAIAAAADPVALAKQIIEGGLSVRETEALARKAPNLSAGKSKGGRPPRVKDTDTQALESDLSSVLGLDVSIDHRGSTGTLTITYATLEQLDDLCNRLTRGI
# Variants of: B1
# Assay: one-hybrid fitness for binding NBS DNA (the Noc-binding site; scaled: cognate 1, non-cognate 0); higher = stronger binding
# Details: with NBS DNA site
# Procedure, shortened: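 Selection: bacterial one-hybrid in E. coli USO, HIS3 reporter with the site 19 bp from the promoter, 48 hours at 37°C on M9-minus-histidine plus 0.1 mM IPTG and 5 mM 3-AT. Libraries were Caulobacter ParB with four randomised specificity codons, sequenced on Illumina before and after selection. Fitness is the rescaled log change in variant-to-wild-type read ratio, anchored to the cognate and non-cognate sites.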
row,Variant,one-hybrid fitness for binding NBS DNA
1,QIKD,≤ 0.2
2,SQPP,≤ 0.2
3,KSQA,≤ 0.2
4,RNDS,≤ 0.2
5,DHSR,≤ 0.2
6,HATW,≤ 0.2
7,RRQP,≤ 0.2
8,DQFT,≤ 0.2
9,DESC,≤ 0.2
10,LAHQ,≤ 0.2
11,DNKG,≤ 0.2
12,THDC,≤ 0.2
13,PFSA,≤ 0.2
14,PKRS,≤ 0.2
15,SPDL,≤ 0.2
16,GFSR,≤ 0.2
17,HFPR,≤ 0.2
18,KRHE,≤ 0.2
19,VTVL,≤ 0.2
20,WYPP,≤ 0.2
21,PFMN,≤ 0.2
22,MVYL,≤ 0.2
23,GNHT,≤ 0.2
24,RYHM,≤ 0.2
25,CHNR,≤ 0.2

row,Variant,one-hybrid fitness for binding NBS DNA
1,NAMG,≤ 0.2
2,SLTL,≤ 0.2
3,DISL,≤ 0.2
4,VTNL,≤ 0.2
5,QKRL,0.262
6,NVDI,≤ 0.2
7,LFEG,≤ 0.2
8,GFKG,≤ 0.2
9,QACW,≤ 0.2
10,RNYA,≤ 0.2
11,QKNT,0.639
12,PVQW,≤ 0.2
13,NQNR,≤ 0.2
14,VRNI,≤ 0.2
15,FNSS,≤ 0.2
16,WAAN,≤ 0.2
17,TGPM,≤ 0.2
18,SKAW,≤ 0.2
19,QTLR,0.639
20,AYGA,≤ 0.2
21,PTMR,≤ 0.2
22,AKWL,≤ 0.2
23,HLTL,≤ 0.2
24,NRTM,0.239
25,ARLS,≤ 0.2

row,Variant,one-hybrid fitness for binding NBS DNA
1,ALDT,≤ 0.2
2,AWTI,≤ 0.2
3,DCRE,≤ 0.2
4,YEEE,≤ 0.2
5,KPID,≤ 0.2
6,RDCQ,≤ 0.2
7,RIGG,≤ 0.2
8,DHKS,≤ 0.2
9,PKAL,≤ 0.2
10,TAKW,≤ 0.2
11,TFCI,≤ 0.2
12,REKG,≤ 0.2
13,QASP,≤ 0.2
14,HLLI,≤ 0.2
15,NHSR,≤ 0.2
16,CACC,≤ 0.2
17,RYIL,≤ 0.2
18,NDPM,≤ 0.2
19,VSKS,≤ 0.2
20,EFWR,≤ 0.2
21,SWDM,≤ 0.2
22,AMDY,≤ 0.2
23,FVKG,≤ 0.2
24,RHWR,0.256
25,TPCY,≤ 0.2

row,Variant,one-hybrid fitness for binding NBS DNA
1,HNAW,≤ 0.2
2,TVGM,≤ 0.2
3,RFWF,≤ 0.2
4,IWLV,≤ 0.2
5,YRSS,≤ 0.2
6,RMPH,≤ 0.2
7,NTTD,≤ 0.2
8,MTWA,≤ 0.2
9,SYQR,≤ 0.2
10,GWYV,≤ 0.2
11,SIRI,≤ 0.2
12,LWYL,≤ 0.2
13,IRRT,0.423
14,GEQG,≤ 0.2
15,SDPW,≤ 0.2
16,CVMI,≤ 0.2
17,PIHM,≤ 0.2
18,SSRL,≤ 0.2
19,ETDL,≤ 0.2
20,GNRC,≤ 0.2
21,DIVC,≤ 0.2
22,STPP,≤ 0.2
23,EPSC,≤ 0.2
24,NVTA,≤ 0.2
25,QWRC,≤ 0.2

row,Variant,one-hybrid fitness for binding NBS DNA
1,HSGK,≤ 0.2
2,QLAD,≤ 0.2
3,PPAP,≤ 0.2
4,LFIG,≤ 0.2
5,PFIL,≤ 0.2
6,YPSE,≤ 0.2
7,KRNP,≤ 0.2
8,WYGK,≤ 0.2
9,IPQL,≤ 0.2
10,PCMA,≤ 0.2
11,FILS,≤ 0.2
12,FNFS,≤ 0.2
13,SYAA,≤ 0.2
14,KVLD,≤ 0.2
15,KEDC,≤ 0.2
16,SMYS,≤ 0.2
17,SRTS,≤ 0.2
18,NHKV,≤ 0.2
19,GATR,≤ 0.2
20,IAWK,≤ 0.2
21,SSYI,≤ 0.2
22,ERGR,≤ 0.2
23,REAQ,≤ 0.2
24,QVCE,≤ 0.2
25,RFIN,≤ 0.2

row,Variant,one-hybrid fitness for binding NBS DNA
1,ATFS,≤ 0.2
2,RLCY,≤ 0.2
3,LTLQ,≤ 0.2
4,NCLL,≤ 0.2
5,ARML,≤ 0.2
6,SIFW,≤ 0.2
7,IDKS,≤ 0.2
8,HSCM,≤ 0.2
9,DRKK,≤ 0.2
10,LPSH,≤ 0.2
11,RFMS,≤ 0.2
12,QCMI,≤ 0.2
13,TVFA,≤ 0.2
14,MNDA,≤ 0.2
15,GVCR,0.275
16,WEDM,≤ 0.2
17,KHMV,≤ 0.2
18,TKIG,≤ 0.2
19,LGWQ,≤ 0.2
20,LCNQ,≤ 0.2
21,EHWM,≤ 0.2
22,SQCR,≤ 0.2
23,LVQE,≤ 0.2
24,PYFM,≤ 0.2
25,PKPR,≤ 0.2

row,Variant,one-hybrid fitness for binding NBS DNA
1,KPGS,≤ 0.2
2,EMKQ,≤ 0.2
3,DSNF,≤ 0.2
4,RSGM,≤ 0.2
5,ACGL,≤ 0.2
6,DQPS,≤ 0.2
7,AEPS,≤ 0.2
8,NYTL,≤ 0.2
9,CKQF,≤ 0.2
10,PTWY,≤ 0.2
11,YQPW,≤ 0.2
12,TKDI,≤ 0.2
13,MAES,≤ 0.2
14,RYNA,0.248
15,IRKS,0.37
16,SEMP,≤ 0.2
17,AITW,≤ 0.2
18,KHHT,≤ 0.2
19,RSEI,≤ 0.2
20,PLIN,≤ 0.2
21,RHAN,≤ 0.2
22,QIHM,≤ 0.2
23,VPED,≤ 0.2
24,QPIL,≤ 0.2
25,KPAG,≤ 0.2

row,Variant,one-hybrid fitness for binding NBS DNA
1,WHSV,≤ 0.2
2,ERQS,≤ 0.2
3,KQQG,≤ 0.2
4,HAPK,≤ 0.2
5,RQYC,≤ 0.2
6,QRGV,0.452
7,GSPC,≤ 0.2
8,VGCR,≤ 0.2
9,NCTH,≤ 0.2
10,TLYK,≤ 0.2
11,AAQD,≤ 0.2
12,IRIS,≤ 0.2
13,HPAM,≤ 0.2
14,IMGR,≤ 0.2
15,YSLV,≤ 0.2
16,ANKN,≤ 0.2
17,KIQL,≤ 0.2
18,EEIR,≤ 0.2
19,GNLK,≤ 0.2
20,SRAW,≤ 0.2
